The campaign covered roughly 150,000 compounds. About 540 (0.36%) showed an effect of 50% or more. Some of the results follow.
Each molecule was assayed on Plasmodium falciparum (assay: Primary screen in NF54 nanoGlo assay, in single point, at 2uM, 72h; a lower Z score goes with more inhibition). Details: timepoint 72 hour.
Assay type: functional, Erythrocyte

Structure (SMILES)	% Inhibition [%]	Z score
CCC(=O)N1CCN(C(=O)c2cnc(Nc3ccccc3)nc2C(F)(F)F)C1	-8	1.2
O=C1NC(=O)C2(CCN(C(=O)Nc3cccc4c3CCCC4)CC2)N1	2	-0.37
O=C1[C@@H]2C(c3ccccc3Cl)=NO[C@@H]2C(=O)N1c1ccc2c(c1)OCO2	-11	1.43
CC(C)(C)c1nc(CN2CCN(C(=O)CCn3ccnn3)CC2)cs1	-10	1.36
C=C1CC(C)(C(=O)NCc2nccs2)C1	-8	0.66
Cc1oc(C(=O)N2CC[C@H](C(=O)O)C2)cc1COc1ccccc1	-14	1.24
O=C(NC[C@H]1CCO[C@@H]1c1cn[nH]c1)c1nccc2occc12	1	-0.15
COCCN(CC(=O)N(C)C)[C@@H](C)C(=O)Nc1cccc(Cl)c1	-9	1.09
COCc1nc(CCNC(=O)c2noc(C)c2Cc2c(C)noc2C)no1	-6	0.75
CC(C)[C@H](CNC(=O)Nc1ccn(C)n1)ONC(=O)OC(C)(C)C	-21	2.3
Cc1ccc(-n2nc(C(=O)N3CCN(c4cccc(C(F)(F)F)c4)CC3)c(=O)n(C)c2=O)cc1	-20	1.79
CN(C)c1nc(N)cc(-c2cnn(CC(=O)Nc3nn(C)c4ccccc34)c2)n1	2	-0.23
O=C(NCCCC1CCCCC1O)c1cc(F)c(O)c(F)c1 (centres undefined)	-13	1.1
Cc1ocnc1C(=O)NC1(c2ccc(F)cc2F)CCCCC1	-6	1.34
O=C(O)c1ccccc1CN1CCC[C@@](CO)(CC2CC2)C1	12	-1.41
CC(C)[C@H](C)NC(=O)Nc1cccc(Br)c1	4	-0.47
Cc1cccnc1-c1cccc(-c2ccn(CCn3cccn3)n2)c1	-9	1.12
CC(C)CN(CC(C)C)C(=O)c1cccc(C(=O)N(CC(C)C)CC(C)C)n1	-2	0.3
C[C@@]1(C(=O)Nc2cccc3cccnc23)Oc2ccccc2NC1=O	29	-3.91
CCCCS(=O)(=O)N[C@@H](C)C(=O)N1CCC(OC)CC1	0	-0.05
COc1cccc(OC2CN(Cc3nc(C)cs3)C2)c1	4	-0.51

Structure (SMILES)	% Inhibition [%]	Z score
COCC1(C2CC2)CN(c2nc(C)nc3c2cnn3-c2ccccc2)C1	-3	0.58
CC1CN(c2ccc(C(F)(F)F)cc2)CC(C)N1Cc1nc[nH]n1 (centres undefined)	-32	3.75
CC(C)[C@@H](NC(=O)c1cc(=O)c2cccc(F)c2[nH]1)C(N)=O	-9	1.55
CC(=O)c1c([O-])n(-c2ccccc2)n[n+]1Cc1ccccc1	4	-0.56
Cc1ccc(CN(C)CCc2ccccn2)o1	11	-1.67
CC(C)N(CC(=O)N(CCc1c[nH]c2ccccc12)Cc1ccc(N(C)C)cc1)C(=O)c1cc(C(F)(F)F)cc(C(F)(F)F)c1	7	-1.29
O=C1[C@H]2[C@H](Cc3c[nH]c4ccc(O)cc34)N[C@@]3(C(=O)Nc4ccccc43)[C@H]2C(=O)N1c1ccccc1	1	-0.15
Cc1nscc1C(=O)OCC(=O)N1CCCC1	12	-1.42
Cc1oc2ccccc2c1CNC(=O)N1CCC(C)(C)C1	-1	0.2
O=C(c1ccc(-c2ccccc2F)s1)N1CCO[C@H](c2ccccc2)C1	-1	0.12
Cn1c(NC(=O)c2ccc(Br)cn2)nnc1C1CC1	-4	0.41
Cc1ccccc1N1C(=O)C2C(c3ccccc3)CCC(c3ccccc3)C2C1=O (centres undefined)	-20	2.18
CC(O)(CC(=O)N1CC2CCC(O)CC2C1)C1CC1 (centres undefined)	-36	4.23
COc1ccc(N2CCN(Cc3cccn3-c3nnc(N4CCCCC4)s3)CC2)cc1	-5	0.49
CO[C@@H](C(=O)N(C)Cc1cn(C)nc1C(C)C)c1ccccc1	-9	1.23
Cc1cc(C)cc(OCC(=O)N[C@H](c2ccccc2)C2CC2)c1	-14	1.61
COc1ccc(CC(=O)Nc2ccc3nnn(CC(C)C)c(=O)c3c2)cc1	12	-1.52
C[C@@H](Cc1csc2ccccc12)NC(=O)Cc1c(F)cccc1Cl	6	-0.73
CC1CCN(C(=O)c2oc3ccccc3c2NC(=O)Cc2ccccc2)CC1	3	-0.32
CCn1cncc1Cn1ccc(-c2cccc(-c3ccncc3)c2)n1	-9	1.1
Cc1nsc2ncc(C(=O)N3CCOCC3)c(N3CCC(C(=O)Nc4ccc(F)cc4Cl)CC3)c12	1	-0.13

Structure (SMILES)	% Inhibition [%]	Z score
c1ccc(-c2nc(-c3ccccc3)c3c(n2)-c2ccccc2C3)cc1	2	-0.28
CC(C)(C)CC(=O)NC[C@H]1OC[C@@H](N(Cc2cccs2)Cc2cccs2)[C@@H]1O	15	-1.76
O=C(NCC1CCOC1)[C@H]1C[C@@H]1c1cccnc1 (some centres undefined)	-13	1.53
Cc1c(NC(=O)Nc2ccc(Cl)c(Cl)c2)sc(=S)n1C	-2	0.43
CCNC(=O)C[C@H]1CCCCN1C(=O)C1CCN(c2nc(C)cs2)CC1	-7	1.25
CCCNC(=O)c1[nH]cnc1C(=O)N[C@H]1CCCCNC1=O	3	-0.38
CCCn1nc(C(=O)N(C)C)c2c1CC[C@H](O)C2	-18	2.26
O=C(NCCc1ccccc1)c1ccc2nc(-c3ccc(F)cc3)c(-c3ccc(F)cc3)nc2c1	1	-0.09
CC#CCn1nnnc1Cc1ccc(OC)c(F)c1	6	-0.7
O=C(C1CCN(S(=O)(=O)c2ccc(Cl)cc2)CC1)N1CCCCCCC1	-12	2.44
CNC(=O)N(C)CCc1noc(COc2cccc(C)c2)n1	-14	1.42
Cc1ccc2nc(N(C)Cc3nc(-c4ccccn4)no3)sc2c1	4	-0.57
Cc1cc2n(n1)CCCN(Cc1cc3n(n1)CCN(c1cc(N)ncn1)C3)C2	-9	1.38
CC(=Cc1ccccc1)CN(C)C(=O)C1CCS(=O)(=O)CC1	-1	0.27
C[C@]1(NC(=O)CCc2c[nH]c3ccccc23)CCS(=O)(=O)C1	7	-1.3
COc1ccc(COC(=O)c2cccnc2C)cn1	42	-4.77
Cc1cc(OC2CCN(C(=O)Cn3cc(-c4ccc(F)cc4)cn3)CC2)cc(=O)n1C	-2	0.34
Cc1cc(C(=O)NCCN2CCC[C@H](C(N)=O)C2)c(-c2ccccc2)o1	-5	0.7
Cc1cc(Cn2nnc(C(=O)N[C@](C)(C(N)=O)C(C)C)c2C)on1	-1	0.17
CCCN(C(=O)c1cc(C)c(OC(F)F)c(C)c1)[C@H]1CCNC1	-14	1.44
COc1ccc(C(NC(=O)CCN2CCOCC2)[C@H]2C[C@@H](O)C2)cc1F (some centres undefined)	3	-0.25

Structure (SMILES)	% Inhibition [%]	Z score
O=C(NCCN1CCN(c2ccccc2F)CC1)[C@H]1CCCN(c2nc3ccc(Cl)cc3[nH]2)C1	1	-0.25
Cc1cc(NC(=O)c2ccc3ccccc3c2)n(-c2nc3c(c(=O)[nH]2)CCC3)n1	2	-0.26
CCC(NC(=O)Cc1c(C)nn(C)c1C)C(O)c1ccccc1F (centres undefined)	-7	0.66
CCCc1cc(CN(C)C(=O)c2c(C)cc(C)[nH]c2=O)n[nH]1	-1	0.21
Cc1cc(C2CCC2)nc(N2CCn3nc([C@@H](O)C4CC4)cc3C2)n1	-13	1.49
COc1ccc(NC(=O)n2nc(C(F)(F)F)nc2N)cc1	-14	1.84
Fc1cccc(-c2ccnc(N[C@H]3CO[C@H]4[C@@H]3OC[C@H]4OCc3ccccc3)n2)c1	-12	1.52
CC1CCN(Cc2nnnn2CCCC(=O)NCc2scnc2-c2ccccc2)CC1	-3	0.6
O=C(O)c1ccc(CN2CCC(Oc3ccc(F)cc3F)CC2)cc1	-17	2.07
O=C([C@@H]1COCCO1)N1CCCc2c(F)ccc(F)c21	2	-0.38
O=C(CCc1ccc(-n2cnnc2)cc1)NC[C@@H]1CCCN2CCCC[C@H]12	-8	1.13
Cn1c(=O)n(CC(=O)NCc2ccccc2F)c2cncnc21	-18	1.85
CCN1C(=O)CCN(C(=O)c2ccnn2C)CC12CCOCC2	33	-0.31
CC(C)[C@H](NC(=O)c1ccccc1F)C(=O)Nc1ccc(F)c(N2CCCNC2=O)c1	-7	1.04
O=C(Cn1cccnc1=O)NC[C@@H](CO)Cc1ccco1	-8	1.54
C[C@]1(c2ccc(Br)cc2)NC(=O)N(CN2CCC(C(=O)N3CCCCCC3)CC2)C1=O	-2	0.21
CN(C)c1cc(C(=O)N[C@H]2CCc3nccn3C2)ccn1	-14	3.02
CCn1c(=O)sc2cc(NC(=O)Cc3cccs3)ccc21	4	-0.45
Cc1ccccc1OCC(=O)NC[C@H]1CCCN(C(=O)c2cccc(O)n2)C1	-8	1.47
